A collection of fitness landscapes (doi:10.1126/science.1257360)
This is one part of the list.

B1: PhoQ; a variant is named by its letters at X, in order, P23837 (parent)
chain: MKKLLRLFFPLSLRVRFLLATAAVVLVLSLAYGMVALIGYSVSFDKTTFRLLRGESNLFYTLAKWENNKLHVELPENIDKQSPTMTLIYDENGQLLWAQRDVPWLMKMIQPDWLKSNGFHEIEADVNDTSLLLSGDHSIQQQLQEVREDDDDAEMTHSVAVNVYPATSRMPKLTIVVVDTIPVELKSSYMVWSWFIYVLSANLLLVIPLLWVAAWWSLRPIEALAKEVRELEEHNRELLNPATTRELTSLVRNLNRLLKSERERYDKYRTTLTDLTHSLKTPLXXLQXXLRSLRSEKMSVSDAEPVMLEQISRISQQIGYYLHRASMRGGTLLSRELHPVAPLLDNLTSALNKVYQRKGVNISLDISPEISFVGEQNDFVEVMGNVLDNACKYCLEFVEISARQTDEHLYIVVEDDGPGIPLSKREVIFDRGQRVDTLRPGQGVGLAVAREITEQYEGKIVAGESMLGGARMEVIFGRQHSAPKDE

Variants of: B1
Assay: enrichment ratio after two sorts for PhoP signalling (ratio (wild type AVST 3.29)); higher = more functional
Settings: with PhoP (E. coli)

Row | Variant | enrichment ratio
1 | HSDP | ≤ 0.25
2 | DRHP | ≤ 0.25
3 | WDHN | ≤ 0.25
4 | TGDN | ≤ 0.25
5 | DIGT | ≤ 0.25
6 | KVPG | ≤ 0.25
7 | ADLF | ≤ 0.25
8 | NGCP | ≤ 0.25
9 | WHMN | ≤ 0.25
10 | PMYA | ≤ 0.25
11 | GYVT | ≤ 0.25
12 | PNLL | ≤ 0.25
13 | SQQK | ≤ 0.25
14 | NQKC | ≤ 0.25
15 | QTTM | ≤ 0.25
16 | LACS | ≤ 0.25
17 | QRHI | ≤ 0.25
18 | GHTR | ≤ 0.25
19 | ADFH | ≤ 0.25
20 | GVDT | ≤ 0.25
21 | HGMG | ≤ 0.25
22 | IGMQ | ≤ 0.25
23 | WGRQ | ≤ 0.25
24 | LKNS | ≤ 0.25
25 | ERMW | ≤ 0.25

Row | Variant | enrichment ratio
26 | DFIH | ≤ 0.25
27 | ARYY | ≤ 0.25
28 | IDEY | ≤ 0.25
29 | NCEF | ≤ 0.25
30 | IGDK | ≤ 0.25
31 | IMCG | ≤ 0.25
32 | LFKT | ≤ 0.25
33 | PLPE | ≤ 0.25
34 | QHHP | ≤ 0.25
35 | QRIQ | ≤ 0.25
36 | AEFK | ≤ 0.25
37 | KCTV | ≤ 0.25
38 | DRRG | ≤ 0.25
39 | DVWV | ≤ 0.25
40 | YCNK | ≤ 0.25
41 | EEAN | ≤ 0.25
42 | YRKF | ≤ 0.25
43 | FSGN | ≤ 0.25
44 | RFTM | ≤ 0.25
45 | GVGY | ≤ 0.25
46 | LIGF | ≤ 0.25
47 | QCFL | ≤ 0.25
48 | RINQ | ≤ 0.25
49 | WPIP | ≤ 0.25
50 | HWHM | ≤ 0.25

Row | Variant | enrichment ratio
51 | NNEL | ≤ 0.25
52 | SLQR | ≤ 0.25
53 | LDNF | ≤ 0.25
54 | QLSS | 0.318
55 | WSDY | ≤ 0.25
56 | WEEI | ≤ 0.25
57 | QANW | ≤ 0.25
58 | LTLF | 0.632
59 | WGVW | ≤ 0.25
60 | FGDQ | ≤ 0.25
61 | ICKM | ≤ 0.25
62 | QWAC | ≤ 0.25
63 | PYNC | ≤ 0.25
64 | ACLG | 8.84
65 | PCFR | ≤ 0.25
66 | WVKF | ≤ 0.25
67 | SDMG | 7.99
68 | QQHK | ≤ 0.25
69 | DMCP | ≤ 0.25
70 | ICGY | ≤ 0.25
71 | IRIN | ≤ 0.25
72 | WHMY | ≤ 0.25
73 | PKWR | ≤ 0.25
74 | MIPH | ≤ 0.25
75 | YLGM | ≤ 0.25

Row | Variant | enrichment ratio
76 | SDIG | ≤ 0.25
77 | WGYL | ≤ 0.25
78 | TLWR | ≤ 0.25
79 | YGLI | 2.27
80 | MDQW | ≤ 0.25
81 | QMAV | ≤ 0.25
82 | ITMR | ≤ 0.25
83 | FYHL | ≤ 0.25
84 | IRQF | ≤ 0.25
85 | GMNR | ≤ 0.25
86 | MSCR | ≤ 0.25
87 | LFSD | ≤ 0.25
88 | FHPM | ≤ 0.25
89 | YWDT | ≤ 0.25
90 | FKVF | ≤ 0.25
91 | AMIA | ≤ 0.25
92 | IREL | ≤ 0.25
93 | EQKL | ≤ 0.25
94 | MEIV | 6.05
95 | DEVE | ≤ 0.25
96 | RSNE | ≤ 0.25
97 | PQGR | ≤ 0.25
98 | YKME | ≤ 0.25
99 | MEIE | ≤ 0.25
100 | QPFN | ≤ 0.25

Row | Variant | enrichment ratio
101 | YCAH | 0.38
102 | HRVC | ≤ 0.25
103 | DPHR | ≤ 0.25
104 | RANT | ≤ 0.25
105 | WAIK | ≤ 0.25
106 | RVKA | ≤ 0.25
107 | MVEF | ≤ 0.25
108 | AFSF | ≤ 0.25
109 | QPAY | ≤ 0.25
110 | PDTH | ≤ 0.25
111 | HLCH | ≤ 0.25
112 | RWSN | ≤ 0.25
113 | LMND | ≤ 0.25
114 | PFKK | ≤ 0.25
115 | GKRD | ≤ 0.25
116 | HPQH | ≤ 0.25
117 | PGDT | ≤ 0.25
118 | RVFH | ≤ 0.25
119 | VTRL | ≤ 0.25
120 | LSLQ | 1.79
121 | PYVH | ≤ 0.25
122 | FIQQ | ≤ 0.25
123 | WHKG | ≤ 0.25
124 | LYPD | ≤ 0.25
125 | FLQK | ≤ 0.25

Row | Variant | enrichment ratio
126 | LHKL | ≤ 0.25
127 | KMPL | ≤ 0.25
128 | DRIY | ≤ 0.25
129 | MLAM | 15.5
130 | ADIN | ≤ 0.25
131 | ISIF | ≤ 0.25
132 | RIDP | ≤ 0.25
133 | MSVK | ≤ 0.25
134 | TRQQ | ≤ 0.25
135 | YNVT | ≤ 0.25
136 | GEYI | ≤ 0.25
137 | MIIH | ≤ 0.25
138 | KIID | ≤ 0.25
139 | SYDS | ≤ 0.25
140 | WWPA | ≤ 0.25
141 | YKKR | ≤ 0.25
142 | GYQF | ≤ 0.25
143 | LVVV | ≤ 0.25
144 | NLPV | ≤ 0.25
145 | IIEP | ≤ 0.25
146 | THAD | 0.554
147 | FCVM | ≤ 0.25
148 | QDDC | ≤ 0.25
149 | DLCR | ≤ 0.25
150 | VLSF | ≤ 0.25

Row | Variant | enrichment ratio
151 | HMIY | ≤ 0.25
152 | DHNN | ≤ 0.25
153 | NCLQ | ≤ 0.25
154 | QSQH | ≤ 0.25
155 | VPAC | ≤ 0.25
156 | KNTQ | ≤ 0.25
157 | FFVG | ≤ 0.25
158 | LLQY | ≤ 0.25
159 | WTYP | ≤ 0.25
160 | DKMH | ≤ 0.25
161 | GKSW | ≤ 0.25
162 | WEDV | ≤ 0.25
163 | NTDP | ≤ 0.25
164 | KHPV | ≤ 0.25
165 | CMFF | ≤ 0.25
166 | CLYN | ≤ 0.25
167 | STHN | ≤ 0.25
168 | TSKV | ≤ 0.25
169 | PKHK | ≤ 0.25
170 | VRSA | ≤ 0.25
171 | LFWP | ≤ 0.25
172 | YAVG | ≤ 0.25
173 | VNEC | ≤ 0.25
174 | NMGF | ≤ 0.25
175 | NTGW | ≤ 0.25

Row | Variant | enrichment ratio
176 | EDIN | ≤ 0.25
177 | YAPN | ≤ 0.25
178 | PTDW | ≤ 0.25
179 | AIID | ≤ 0.25
180 | YPFC | ≤ 0.25
181 | TRNY | ≤ 0.25
182 | AFYV | ≤ 0.25
183 | GHMY | ≤ 0.25
184 | FCCY | ≤ 0.25
185 | SSRY | ≤ 0.25
186 | STVT | 0.835
187 | QKHC | ≤ 0.25
188 | TMKE | 13.6
189 | WFSD | ≤ 0.25
190 | EKWP | ≤ 0.25
191 | KCHQ | ≤ 0.25
192 | VTQA | ≤ 0.25
193 | WFTL | ≤ 0.25
194 | VSTF | ≤ 0.25
195 | SDTY | ≤ 0.25
196 | ERNS | ≤ 0.25
197 | MACL | 7.63
198 | RAFG | ≤ 0.25
199 | GYNY | ≤ 0.25
200 | FLDY | ≤ 0.25

Row | Variant | enrichment ratio
201 | NGQR | ≤ 0.25
202 | DYVC | ≤ 0.25
203 | YPFG | ≤ 0.25
204 | VVTN | ≤ 0.25
205 | ECTD | ≤ 0.25
206 | FNPL | ≤ 0.25
207 | FQFM | ≤ 0.25
208 | IIVL | ≤ 0.25
209 | GDAQ | ≤ 0.25
210 | NLEA | ≤ 0.25
211 | NYSP | ≤ 0.25
212 | YRMV | ≤ 0.25
213 | HGNM | ≤ 0.25
214 | TAAF | 18.4
215 | WHNK | ≤ 0.25
216 | KCSD | ≤ 0.25
217 | GWCN | ≤ 0.25
218 | PFFK | ≤ 0.25
219 | QIAT | ≤ 0.25
